{
  "source": "PubChem BioAssay AID1347417",
  "about": "(National Center for Advancing Translational Sciences (NCATS), 2020)",
  "note": "Among all 120,000 compounds or so, about 5,300 (4.4%) were called active. Inconclusive means that the source gave no clear call. Such entries were picked first, then a sample of the others. Calls follow the shape of the dose curve; as a rule, active = well fitted inhibition curve with a large enough effect; inconclusive = small, poorly fitted or top-dose-only effect; inactive = no such curve, though single readings can be large or run the other way. Potencies beside an inconclusive call are fits to weak or partial responses and may not hold up. Potency is read from the fitted curve at half-maximal effect; tags tell the direction and shape of the fitted curve.",
  "data": [
    {"test": "qHTS Primary assay for Inhibitors of Plasmodium falciparum Dd2 growth in vitro; also: nearly all actives have a fitted effect of over 65% in size", "details": "P. falciparum Dd2 growth, SYBR Green, 72 h; series mostly up to 28.9 µM", "summary_of_the_method": "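Readout: SYBR Green fluorescence, 485 nm excitation, 535 nm emission, after ~16 h lysis at 37C. Before that, Dd2-infected red cells (2.5% hematocrit) grew 72 h with compound, 29 uM top final concentration.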", "values": [
      {"smiles": "O=C1C[C@@H]2CCN(C(=O)COc3ccccc3)C[C@@H]2CCN1Cc1ccc2c(c1)OCO2", "Potency": "inactive"},
      {"smiles": "COc1cc2c(cc1OCc1ccccc1)N([S+](=O)([O-])c1cccc(C)c1)CC21CCN(C)CC1", "Potency": "inconclusive: 3.16 µM [inhibitor, full curve]"},
      {"smiles": "COC(=O)c1ccc2nc(C[C@@H]3C[C@@H](C(C)C)[C@H](CNC(=O)c4cnccn4)C=C3C)[nH]c2c1", "Potency": "inactive"},
      {"smiles": "COc1cccc(N2CCN(C(=O)c3ccc4c(c3)N(C)C3CCCCCN3C4=O)CC2)c1", "note": "(configuration not stated)", "Potency": "inconclusive: 12.6 µM [inhibitor, single point]"},
      {"smiles": "CCC1=C(C(=O)OC)C(c2ccccc2)N2C(CC(=O)N3CCC(C)CC3)=CSC2=N1", "note": "(configuration not stated)", "Potency": "inconclusive: 0.0708 µM [inhibitor, full curve]"},
      {"smiles": "CCOc1ccccc1NC(=O)Nc1ccc(-c2nnc3n2CCCC3)cc1", "Potency": "inconclusive: 10 µM [inhibitor, single point]"},
      {"smiles": "Cc1c(CNC2CCCCCC2)c(C(=O)O)c(C)n1Cc1c(F)cccc1Cl", "Potency": "inconclusive: 11.2 µM [inhibitor, single point]"},
      {"smiles": "Cc1cc(C)c([S+](=O)([O-])c2nnn3c2nc(NCc2ccncc2)c2ccccc23)c(C)c1", "Potency": "active: 2.24 µM"},
      {"smiles": "OC[C@@H]1CN(CC2CC2)C[C@H]1c1nc(-c2cccnc2)no1", "Potency": "inconclusive: 15.8 µM [inhibitor, single point]"},
      {"smiles": "COc1ccc(-c2cc(N3CCC(NC(=O)c4ccccc4Cl)C3)n[nH]2)cc1", "note": "(configuration not stated)", "Potency": "inconclusive: 3.98 µM [inhibitor, single point]"},
      {"smiles": "COc1ccc(NC(=O)Cn2cnc3c(nc4n3CCCCC4)c2=O)c(OC)c1", "Potency": "inconclusive: 11.2 µM [inhibitor, single point]"},
      {"smiles": "Cc1cnc(CCNC(=O)CC(C)C)n1Cc1ccc(F)cc1", "Potency": "inconclusive: 7.08 µM [inhibitor, partial curve, poor fit]"},
      {"smiles": "COCCCn1c(=N)c(C(=O)NC2CCCCC2)cc2c(=O)n3ccccc3nc21", "Potency": "inconclusive: 11.2 µM [inhibitor, single point]"},
      {"smiles": "O=C(NCc1ccco1)C1CN(S(=O)(=O)c2ccccc2)CC12CCCCC2", "note": "(configuration not stated)", "Potency": "inconclusive: 1 µM [inhibitor, full curve]"},
      {"smiles": "O=C(O)CCc1cc2n(n1)CCCN(Cc1cn[nH]c1C(=O)O)C2", "Potency": "inactive"},
      {"smiles": "COc1cccc(CN2CCC3(CC2)C(OC)CN3c2cccc(F)c2)n1", "note": "(configuration not stated)", "Potency": "inconclusive: 3.98 µM [inhibitor, single point]"},
      {"smiles": "Cc1ccc(-n2ncc(C(=O)N3CCN(c4ccccn4)CC3)c2C2CCN(C(=O)OC(C)(C)C)CC2)cc1C", "Potency": "inactive"}
    ]}
  ]
}
